# Reference: PubChem BioAssay AID1240 (Sanford-Burnham Center for Chemical Genomics, 2008)
# Hit rate of the full screen: of about 50,000 compounds, about 800 (1.6%) showed an effect of 50% or more. The list shows a part of the results.
# Target: Bcl-2-like protein 10 (Homo sapiens) (UniProt Q9HD36)
# Test: TR3 peptide-Bcl-B binding displacers, biochemical primary FP assay, phenotype converters (AID 1240);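 also: 0% = Bcl-B with tracer peptide and DMSO and 100% = tracer peptide lacking Bcl-B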
# Conditions: GST-Bcl-B / FITC-TR3 peptide fluorescence polarization; stronger effect = higher value; compound at 3.75 mg/L
# Sequence of UniProt Q9HD36 (Q9HD36 whole entry, looked up): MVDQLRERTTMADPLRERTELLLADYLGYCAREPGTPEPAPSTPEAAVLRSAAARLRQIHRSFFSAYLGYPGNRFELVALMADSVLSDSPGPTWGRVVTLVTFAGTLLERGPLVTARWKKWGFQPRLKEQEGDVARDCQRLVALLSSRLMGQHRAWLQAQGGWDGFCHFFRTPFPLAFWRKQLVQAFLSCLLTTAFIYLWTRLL
row,SMILES,displacement [%]
1,O=C(N/N=C/c1ccccc1[N+](=O)[O-])C(=O)Nc1cccc2ccccc12,6.1
2,C/C(=C\C(=O)ONC(=O)c1ccccc1)NCc1ccccc1,0
3,O=C(CN1C(=O)c2ccc([N+](=O)[O-])cc2C1=O)N1CCCCC1,-9.1
4,O=C(Nc1c(F)cc(F)cc1Br)c1nc2nc(-c3ccccc3)cc(C(F)(F)F)n2n1,10.8
5,OCCNc1ncc(-c2ccccc2)cn1,-7.1
6,NS(=O)(=O)c1ccc(NC(=O)c2ccccc2I)cc1,-13.4
7,O=S(=O)(Nc1ccccc1CO)c1ccccc1,7
8,O=C(c1cccs1)N1CCN(C2CCN(Cc3ccccc3)CC2)CC1,0.4
9,Cc1ccc(N(CC(=O)Nc2cccc(Cl)c2C)S(C)(=O)=O)cc1,-5
10,FC(F)(F)c1ccc2nnc(-c3cc(Br)ccc3OCc3ccccc3)n2c1,-10.6
11,CCOC(=O)c1ccc(NC(=O)C(=O)NCCc2ccc(OC)c(OC)c2)cc1,-4.4
12,O=[N+]([O-])c1ccc2c(c1)C1C=CCC1C(c1ccccc1Cl)N2 (centres undefined),4.5
13,COC(=O)c1ccccc1NC(=O)Cn1cnc([N+](=O)[O-])n1,11.9
14,COC(=O)c1c(-c2ccccc2Cl)csc1N,7.8
15,CCOC(=O)c1c(C)nc2c(c1-c1ccc(Br)cc1)C(=O)CC(C)(C)C2,-6.2
16,COc1ccc(S(=O)(=O)N/N=C/c2ccc3c(c2)OCO3)cc1,-5.9
17,CCc1nnc(NS(=O)(=O)c2ccc(N=Cc3c(C)[nH]n(-c4ccc(Cl)cc4)c3=O)cc2)s1,4.6
18,C(=N\N(c1ccccc1)c1ccccc1)/c1ccccc1,10.8
19,COc1ccc(CCNC(=O)C(=O)NCCc2ccc(OC)c(OC)c2)cc1,-16.4
20,O=C(NC12CCC(O)C(SC1)/C2=N/O)c1ccccc1 (centres undefined),12.7
21,O=C(N/N=C/c1ccc([N+](=O)[O-])cc1)c1cc(C23CC4CC(CC(C4)C2)C3)[nH]n1,-9.4
22,CCOc1cc(C(=O)Nc2ccc(Cl)c(-c3nc4ncccc4o3)c2)cc(OCC)c1OCC,35.2
23,CCOc1ccc2cc(S(=O)(=O)N3CCC(C)CC3)ccc2c1,16.4
24,Cc1c(OC(C)C)ccc2c(-c3ccccc3)cc(=O)oc12,-2.5
25,COc1ccc(C2CC(=O)C3=C(C2)Nc2ccccc2NC3c2c[nH]c3ccccc23)cc1 (centres undefined),-11.9
26,Nc1nnc(SCC(=O)NCc2ccccc2)s1,12.4
27,CC(=O)c1ccc(N2C(=O)C3C4C=CC(CC4)C3C2=O)cc1 (centres undefined),9.8

row,SMILES,displacement [%]
1,CC(C(=O)N1CCN(C)CC1)N1C(=O)c2ccccc2C1=O (centres undefined),7.1
2,Cc1nc2sc(C(=O)c3ccc(Br)cc3)c(N)c2c(C)c1C,132
3,O=[N+]([O-])c1ccc(CSc2nnc(-c3cccc(F)c3)n2-c2ccccc2)cc1,11.4
4,CC(C)(C)C(=O)COc1cc2oc(=O)c3c(c2cc1Cl)CCC3,-0.7
5,CCOC(=O)C1=C(C)NC(=S)NC1c1ccc(OCc2ccc(Cl)cc2Cl)c(OC)c1 (centres undefined),-9.4
6,COc1ccc(COC(=O)C2=C(C)NC3=C(C(=O)CC(C)(C)C3)C2c2cccs2)cc1 (centres undefined),-11.4
7,CC(=O)Oc1cccc(N2C(=O)c3ccc(C(=O)Nc4cccc(C(=O)NCC(C)C)c4)cc3C2=O)c1,-8.7
8,COc1ccc(C(NC=O)c2ccc(OC)cc2)cc1,-5.6
9,Cc1nn(C)c(C)c1N=Cc1c(O)ccc2ccccc12,11.6
10,O=C(NCCCNc1ccc([N+](=O)[O-])cc1Cl)c1cccnc1,10.8
11,CC(=O)NN=C1CC(C)(C)NC(C)(C)C1,5.9
12,COc1ccc(C(=O)NC(NC(=S)Nc2sc3c(c2C(N)=O)CCCC3)C(Cl)(Cl)Cl)cc1 (centres undefined),3.9
13,O=C(CN(c1ccccc1)S(=O)(=O)c1ccccc1[N+](=O)[O-])NC1CCCCC1,7.8
14,COc1cccc(C2/C(=C(\O)c3ccc(Cl)cc3)C(=O)C(=O)N2c2cccnc2)c1 (centres undefined),-17.8
15,CC1(C)CC(=O)C2=C(C1)NC1=C(C(=O)c3ccccc31)C2c1ccc(OC(=O)c2sc3ccccc3c2Cl)cc1 (centres undefined),1.4
16,O=C(NCc1ccccn1)c1ccccc1Oc1ccccc1,12.3
17,CCOC(=O)c1ccccc1NC(=O)CN(c1cccc([N+](=O)[O-])c1)S(=O)(=O)c1ccccc1,-5
18,Cc1cc(NNc2ccc(Cl)cc2)c(C(N)=O)c(C)n1,0
19,COc1cccc(NC(=O)CN(c2cc(Cl)cc(Cl)c2)S(C)(=O)=O)c1,8.6
20,Cc1ccc(-c2nc3ccccc3s2)cc1NC(=O)c1ccc(Br)o1,-3.3
21,COc1ccc(S(=O)(=O)N2CCCCCC2)cc1,-7.8
22,Cc1ccc(N2C(=O)C3C4c5ccccc5C(C)(c5ccccc54)C3C2=O)cc1 (centres undefined),3.5
23,O=C(O)CCCCCN1C(=O)C(=O)/C(=C(/O)c2ccc(Cl)cc2)C1c1ccccc1[N+](=O)[O-] (centres undefined),-2.6
24,O=C(NCCCO)C(=O)Nc1cccc(Cl)c1Cl,8.7
25,O=C(Nc1ccc2nn(-c3ccc(Cl)cc3)nc2c1)c1ccccc1I,7.4
26,Cc1cc(C)c(S(=O)(=O)Nc2ccc(C(N)=O)cc2)c(C)c1,12.7
27,CN1CCN(c2ccc3c4c(cccc24)C(=O)c2ccccc2-3)CC1,2.9
